The other results are listed elsewhere or left out.
System: PfSIP2 AP2 domain 1 (GST-tagged)
Assay: gcPBM binding intensity (ln(normalized median fluorescence intensity)); higher = stronger DNA binding
Outline: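 Using an Agilent 4 × 180k array, primer-extended double-stranded 36-bp intergenic genomic probes and negative controls were exposed for 1 h to GST-fused P. falciparum DNA-binding domains expressed in E. coli. Binding was carried out in 1× PBS with 1% milk, 0.2 mg/ml BSA, 0.5% salmon testes DNA and 0.03% Triton X-100, and protein was detected with Alexa488 anti-GST antibody and a 488 nm scan. Binding intensity is the highest Masliner-normalised natural-log median intensity across replicate spots of either probe orientation.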

Sequence | gcPBM binding intensity (ln)
TTCTCCTAATAGTTAGTGCACTACATAACTAAGAAA | 10.8
AAAAAAAAAAAAAAAACACACATTTAGCAATCTACA [CACACA_site3706] | 7.71
ATGATACTAAAAAATTGTACATATAACAAAAGGTAT [XGTACX_site2527] | 7.14
CATATATTTTGAAACACACACATATATAATATACAT [CACACA_site1158] | 7.16
TTTGTATAATACATGTGTACGTATTTTTATATAAAT [XGTACX_site8656] | 7.33
TTATCATTATATAGTTGTACATATTTATTTATAAAA [XGTACX_site2310] | 7.26
AGAACTAAAAGAACATGTACATAAATTCTAAATAAT [XGTACX_site4084] | 6.9
TATTTTGTTTTAAAAGTACACACTTTTAATTAGATT [CACACA_site1180] | 7.48
ATAACAAAATGAAGAGTGCATTACCAAGTGGGTAAA [GTGCAC_site9450] | 8.64
ATATTTAAGGCGTGTATGCACACGACTATTCCGTAT [CACACA_site1080] | 6.96
TTAATTTGTTCTTACACACACATATAAATATATTTA [CACACA_site6676] | 7.11
ATAAACATGGAAATGTATTAAAAGCAAGTATATAAA [XGTACX_negctrl_site516] | 7.03
TGTTGTTACAGATATACACACATATATATATTATAT [CACACA_site5342] | 7.26
TTGGGTGCATATATTTGTACACATTATTTCTATTTT [XGTACX_site3688] | 12
TAAATTATAACGTGCACACATATTTAAAATGAAATG [CACACA_site2820] | 10.3
AAAAAAAATTTCTTCACACATAAATAAATAAATAAA [CACACA_site4841] | 7.01
TGCATTTATATCTTCACACATATATATATATATATA [CACACA_site4516] | 9.14
ATTAAAAATTCAATTGCACACGCACATATTTTAATA [CACACA_site8618] | 7.04
ATGTAATAAAATAATTGTACAATGTAACTAATTTTT [XGTACX_site2871] | 6.95

Sequence | gcPBM binding intensity (ln)
ATATGTATATATACATGTACATATTTTTCCTTTCTT [XGTACX_site149] | 6.94
ACATAAATAAATTAATGTACATATATATTTGTATAT [XGTACX_site3160] | 7.1
TATATATATATATATACACACACACCCATATATATA [CACACA_site8812] | 9.59
TTTTTTTTTTTTTCAAGTACATATATATATATATAA [XGTACX_site2098] | 7.58
TTTTTATATGTTAAGTGTACGTTTACATTTTATACT [XGTACX_site3485] | 7.06
TATACATACATTAGACGTACACATTTTACCTACACC [XGTACX_site3586] | 7.86
TTTTTTGTATTTTTCACACACACATAAGTAAACAAT [CACACA_site1900] | 7.25
TATTATGTATGTATATGTACGTATCTTATTTTATTT [XGTACX_site5008] | 6.99
AAATTATTATATATATGTACGTATAATGTATTTTGT [XGTACX_site2903] | 7.08
AAATATAGAATACATGTGCACATAATATATATATAT | 9.21
AATACAATTTATAACACACACACAAGAATACCTATA [CACACA_site6705] | 7.02
TCTTTTTAAGGGATTTTTTTTTTTTTTTTAAAAAGA [CACACA_negctrl_site1274] | 6.65
TTTGTATCTATATATTGTACGAATTACTTTCATTTA [XGTACX_site4785] | 6.8
AAATGTAAATTTATCCGTACATATATATATTTATAT [XGTACX_site7024] | 7.01
AAAAAAAAAAAAATATATATATATATATATATATAT [GTGCAC_negctrl_site212] | 9.48
AAAAAAAAAAATTAAAGTACAAAAATATTAAAAATA [XGTACX_site6517] | 6.8
ATTTTTTTTATGTATTATGCTTTTATATCCTTCATA [CACACA_negctrl_site1244] | 7.19
ATTTCTTTTACATTTACATGCAATGCTCTATAGATA [TGCATGCA_site62] | 7.34
AAAGAATTTGCATATACACACAAAAAAATAAATACA [CACACA_site4373] | 7.03

Sequence | gcPBM binding intensity (ln)
ATATATATATACATATGTACATATATATTTATACAT [XGTACX_site2463] | 8.45
TACACAGACGGACACACACACACACTAGAAAAAAAA [CACACA_site4435] | 7.34
AATATAATATAATGCACACATAAAAAAAAAAAAATC [CACACA_site1303] | 7.43
AATGCACTATTTAAAAGTACACATAAGAAAAGCATA [XGTACX_site1739] | 8.82
GCTAAACAATAGTTTGCACACAATTTAAATATATAT [CACACA_site193] | 7.15
AGTATAAATATATTATGTACATATATATTATACTTA [XGTACX_site2623] | 6.98
TTATATACATTAAATGAACACACATAAATAAATTAC [CACACA_site8927] | 6.97
AAAAAAAAAAAAAACACACACACACGCAGATATATA [CACACA_site6672] | 7.49
TTTATTCTCCACACCCGTACACATTTTTTTTGCATA [XGTACX_site5615] | 7.39
ATTATAGACAACTCTTTTTCTAAACTATTTTATTTT [CACACA_negctrl_site1754] | 6.97
CATAATATTTGTGAAAGTACTTATTTTACAATAGGG [XGTACX_site5004] | 6.91
TTTCTTAAAATATAAAGTACTAAAATGAAAATATAT [XGTACX_site2173] | 7.13
AAATAAAGAAATATATGTACATATATATATATATAT [XGTACX_site5131] | 9.76
TTTTCTATAAGATTTGCACACAACTTATTCTATTAA [CACACA_site3752] | 7.21
ATAAATAAATAAATAAATATATATATGAAATAATGT [TGCATGCA_negctrl_site12] | 7.09
CTTCTTTTGTGATAAAGTACAAATATTTTGAAATAT [XGTACX_site1156] | 7.44
AAAAAATATAAAACGAGTACATATATAATAAGCAAA [XGTACX_site1360] | 7.23
CATTGACCATTAATTTGTACACAAGGGGAAATGAGG [XGTACX_site1756] | 7.18
TATATATATATATATATATATATATATATATATATT [CACACA_negctrl_site1440] | 9.26

Source: the supplement of paper PMC11417369
